In all, about 360,000 compounds went through this assay and about 2,600 (0.72%) were called active. The shares of active, inactive and inconclusive entries below differ from those in the screen. The call rests on the fitted dose curve; in most records, active means well fitted inhibition curve with a large enough effect; inconclusive means small, poorly fitted or top-dose-only effect; inactive means no such curve, though single readings can be large or run the other way. Potencies beside an inconclusive call are fits to weak or partial responses and may not hold up.
Assay: Primary qHTS for Inhibitors of ATXN expression; further: nearly all actives have a fitted effect of over 55% in size
Conditions: HEK-293 ATXN2-luciferase reporter, luminescence, 24 h; activity change, negative = inhibition: at 57 µM (top of the series)
Outline: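 ATXN2-luciferase reporter cells (luciferase flanked by upstream and downstream ATXN2 gene portions) were treated 24 h at 37 °C with compounds at up to 57 uM. SteadyGlo luminescence gave expression; GF-AFC fluorescence gave viability.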
On the % scale 0 is the no-effect control and ±100 the full control effect; potency means the concentration at half of the fitted maximal effect; tags describe the fitted curve by direction and shape.

Potency, inconclusive:
CCN(CC)CCCC(C)Nc1nccc2c(Cl)cccc12 (configuration not stated) 25.1 µM [inhibitor, partial curve, poor fit]
COc1cccc(CNCc2cccn2-c2nnc(N3CCN(c4ccccc4)CC3)s2)c1 22.4 µM [inhibitor, partial curve]
O=C(CCNc1ccc(F)c(Cl)c1)c1ccco1 39.8 µM [inhibitor, single point]
CCOc1ccccc1Cn1c(=O)sc2ccccc21 0.0844 µM [inhibitor, full curve, poor fit]
CCC(C)(C)C1CCc2[nH]nc(C(=O)NCc3ccccn3)c2C1 (configuration not stated) 35.5 µM [inhibitor, partial curve, poor fit]
O=C(Nc1ccc2nc3n(c(=O)c2c1)CCCCC3)c1cc([N+](=O)[O-])ccc1F 39.8 µM [inhibitor, single point]
Cc1ccc(NC(=O)c2nc[nH]c2C(=O)NCCCCCNC(=O)OC(C)(C)C)cc1 39.8 µM [inhibitor, single point]
COc1cccc(/C=N/Nc2nc(Nc3ccccc3)nc(-n3nc(C)cc3C)n2)c1O 0.316 µM [inhibitor, full curve, poor fit]
O=c1oc2ccccc2c(Cl)c1CN1CCCCC1 2.99 µM [inhibitor, partial curve, poor fit]
COc1cc(-c2noc(C)c2/C=C/c2cccc([N+](=O)[O-])c2)cc(OC)c1OC 8.91 µM [inhibitor, partial curve, poor fit]
O=C(OCc1cn([C@H]2CN(C(=O)c3cccs3)[C@@H](c3ccc(Cl)cc3)C[C@@H]2O)nn1)c1ccccc1 31.6 µM [inhibitor, partial curve, poor fit]
O=C1C(c2ccccc2)=[N+]([O-])c2ccccc21 39.8 µM [inhibitor, single point]
CCCN1CCCc2cc(CN(CCCN3CCOCC3)C(=O)Nc3ccc(CC)cc3)ccc21 39.8 µM [inhibitor, single point]
CC(NC(=O)CCc1nnc(-c2ccc(-c3ccccc3)cc2)o1)c1nccs1 (configuration not stated) 0.501 µM [inhibitor, partial curve, poor fit]
O=C(NC1CCCC1)c1ccc(COc2ccccc2Br)o1 39.8 µM [inhibitor, single point]
O=C(Nc1ccc2c(c1)OCCO2)C(c1ccnc2ccccc12)N1CCN(C/C=C/c2ccccc2)CC1 (configuration not stated) 39.8 µM [inhibitor, single point]
CN1CCN(CC(=O)Nc2cc(N(C)C)nc3ccccc23)CC1 33.6 µM [inhibitor, single point]
FC(F)(F)c1cc(CCN2CCNC[C@@H]2c2ccccc2)cc(C(F)(F)F)c1 35.5 µM [inhibitor, single point]
COc1ccc(Br)cc1CNC(=O)CN1CCSc2ccccc21 15.8 µM [inhibitor, partial curve, poor fit]
COc1ccc(C(C)NC(=O)C2CCN(CCOc3ccc(Cl)cc3Cl)CC2)cc1OC (configuration not stated) 35.5 µM [inhibitor, partial curve]
C=CCC[C@H](Cc1ccc(F)cc1)C(=O)O[C@H](CNC(=O)[C@@H](CC=C)CC(=O)N(CCO)Cc1ccccc1)c1ccccc1 31.6 µM [inhibitor, single point]
Cc1sc2ncnc(N3CCC(C(=O)Nc4sc5c(c4C(N)=O)CCC(C)C5)CC3)c2c1C (configuration not stated) 20 µM [inhibitor, single point]
COC(=O)c1c(NC(=O)/C=C/C(=O)O)sc(C)c1-c1ccc(C)cc1 39.8 µM [inhibitor, single point]
CCCCCCn1c(=O)n2n(c1=O)[C@@H]1CN(S(=O)(=O)c3ccc(C)cc3)C[C@]1(O)[C@@H](OC(=O)NCc1ccccc1F)C2 39.8 µM [inhibitor, single point]
Cc1cc2c3c(c1C)C1(C(=O)N3C(C)(C)CC2C)C(C#N)=C(N)Oc2cc(O)ccc21 (configuration not stated) 35.5 µM [inhibitor, single point]
O=C(CCN1CCN(c2ccccc2)CC1)Nc1ccc(OCc2ccccc2)cc1 10 µM [inhibitor, partial curve, poor fit]
CCC(C)(C)n1nnnc1CN1CCN(c2nc3cc(OC)ccc3cc2C#N)CC1 14.1 µM [inhibitor, partial curve, poor fit]

Potency, active:
O=S(=O)(c1ccc2c(c1)OCCO2)N1CCC(c2nc3ccc(Cl)cc3[nH]2)CC1 15.8 µM
Cc1ccc([N+](=O)[O-])cc1S(=O)(=O)N(C)N=Cc1cnc2ccc(Br)cn12 0.0485 µM
On1ccccc1=S 0.282 µM

Activity change, negative = inhibition, inactive:
Cc1ccc(NC(=O)c2sccc2-n2cccc2)c(C)c1 -0.735%
O=C(Oc1cccc2cccnc12)c1cccs1 -5.37%
Cc1oc2ccc(O)c(CN3CCN(C)CC3)c2c1C(=O)Nc1ccccc1 -9.4%
O=C(COc1ccc(F)cc1Br)N1CCN(c2ncccn2)CC1 2.87%
Cc1ccc(Cl)cc1N1CCN(c2cccc[n+]2C)CC1 -20.8%
N=C1/C(=C\c2ccc(-c3cccc(C(=O)O)c3)o2)C(=O)N=C2SC=C(c3ccccc3)N12 15.7%
COc1cc(-c2noc(C)c2C(=O)NCc2ccc(C)o2)cc(OC)c1OC 4.36%
Cc1ccc(OCC(=O)Nc2cccc(-c3nnc(-c4ccccc4)o3)c2)cc1 57%
Cc1ccc(-n2c(=O)c3ccc(C(=O)NCc4ccco4)cc3n(Cc3cccc(Cl)c3)c2=O)cc1 5.13%
CCOC(=O)c1sc(SCC(=O)Nc2ccc(N(C)C)cc2)nc1N -17.9%
O=C(N/N=C/c1cccc(Oc2ccccc2)c1)c1cccc(O)c1 8.34%
COC(=O)[C@H]1C[C@H](OC(=O)Nc2cccs2)[C@@]2(O)CN(S(=O)(=O)c3ccc(C)cc3)CC2[C@H]1C(=O)OC (some centres not stated) -13.4%

Source: PubChem BioAssay AID1745845 (National Center for Advancing Translational Sciences (NCATS), 2022)
